# The list shows a part of the results.
# Columns and labels:
# Assay in all cases: glycan array binding signal (z-score within array); higher = stronger binding
# Details in all cases: glycan notation: IUPAC condensed, linker removed
# [1] = biological target: Neu5Ac(a2-6)Gal(b1-4)GlcNAc(b1-2)Man(a1-3)[Man(a1-6)]Man(b1-4)GlcNAc(b1-4)GlcNAc
# Outline: (§1)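 Arrays were curated from the Consortium for Functional Glycomics database, 3228 in total, and kept only where the protein sequence was available. Binding is expressed as a within-array Z-score. This score was averaged across arrays of the same protein sequence at different concentrations or buffers and across linkers, and negative values can be read as non-binding.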
# [2] = biological target: Neu5Ac(a2-6)Gal(b1-4)GlcNAc(b1-2)Man(a1-3)[Neu5Ac(a2-3)Gal(b1-4)GlcNAc(b1-2)Man(a1-6)]Man(b1-4)GlcNAc(b1-4)GlcNAc
# Outline: as §1
# [3] = biological target: Neu5Ac(a2-6)Gal(b1-4)GlcNAc(b1-2)Man(a1-3)[Neu5Ac(a2-6)Gal(b1-4)GlcNAc(b1-2)Man(a1-6)]Man(b1-4)GlcNAc(b1-4)GlcNAc
# Outline: as §1
# [4] = biological target: Neu5Ac(a2-6)Gal(b1-4)GlcNAc(b1-2)Man(a1-3)[Neu5Ac(a2-6)Gal(b1-4)GlcNAc(b1-2)Man(a1-6)]Man(b1-4)GlcNAc(b1-4)[Fuc(a1-6)]GlcNAc
# Outline: as §1
# [5] = biological target: Neu5Ac(a2-6)Gal(b1-4)GlcNAc(b1-2)Man(a1-6)Man(b1-4)GlcNAc(b1-4)GlcNAc
# Outline: as §1
# [6] = biological target: Neu5Ac(a2-6)Gal(b1-4)GlcNAc(b1-2)Man(a1-6)[Gal(b1-4)GlcNAc(b1-2)Man(a1-3)]Man(b1-4)GlcNAc(b1-4)GlcNAc
# Outline: as §1
# [7] = biological target: Neu5Ac(a2-6)Gal(b1-4)GlcNAc(b1-2)Man(a1-6)[GlcNAc(b1-2)Man(a1-3)]Man(b1-4)GlcNAc(b1-4)GlcNAc
# Outline: as §1
# [8] = biological target: Neu5Ac(a2-6)Gal(b1-4)GlcNAc(b1-2)Man(a1-6)[Man(a1-3)]Man(b1-4)GlcNAc(b1-4)GlcNAc
# Outline: as §1
# [9] = biological target: Neu5Ac(a2-6)Gal(b1-4)GlcNAc(b1-2)[Neu5Ac(a2-6)Gal(b1-4)GlcNAc(b1-4)]Man(a1-3)[GlcNAc(b1-4)][Neu5Ac(a2-6)Gal(b1-4)GlcNAc(b1-2)[Neu5Ac(a2-6)Gal(b1-4)GlcNAc(b1-6)]Man(a1-6)]Man(b1-4)GlcNAc(b1-4)GlcNAc
# Outline: as §1
# [10] = biological target: Neu5Ac(a2-6)Gal(b1-4)GlcNAc(b1-2)[Neu5Ac(a2-6)Gal(b1-4)GlcNAc(b1-4)]Man(a1-3)[GlcNAc(b1-4)][Neu5Ac(a2-6)Gal(b1-4)GlcNAc(b1-4)Man(a1-6)]Man(b1-4)GlcNAc(b1-4)GlcNAc
# Outline: as §1
# [11] = biological target: Neu5Ac(a2-6)Gal(b1-4)GlcNAc(b1-2)[Neu5Ac(a2-6)Gal(b1-4)GlcNAc(b1-6)]Man(a1-6)[Neu5Ac(a2-6)Gal(b1-4)GlcNAc(b1-2)Man(a1-3)][GlcNAc(b1-4)]Man(b1-4)GlcNAc(b1-4)GlcNAc
# Outline: as §1
# [12] = biological target: Neu5Ac(a2-6)Gal(b1-4)GlcNAc(b1-3)Gal(b1-3)GlcNAc
# Outline: as §1
# [13] = biological target: Neu5Ac(a2-6)Gal(b1-4)GlcNAc(b1-3)Gal(b1-4)GlcNAc
# Outline: as §1
# [14] = biological target: Neu5Ac(a2-6)Gal(b1-4)GlcNAc(b1-3)Gal(b1-4)GlcNAc(b1-2)Man(a1-3)[Neu5Ac(a2-6)Gal(b1-4)GlcNAc(b1-3)Gal(b1-4)GlcNAc(b1-2)Man(a1-6)]GalNAc
# Outline: as §1
# [15] = biological target: Neu5Ac(a2-6)Gal(b1-4)GlcNAc(b1-3)Gal(b1-4)GlcNAc(b1-3)Gal(b1-4)GlcNAc
# Outline: as §1
# [16] = biological target: Neu5Ac(a2-6)Gal(b1-4)GlcNAc(b1-3)Gal(b1-4)GlcNAc(b1-3)Gal(b1-4)GlcNAc(b1-2)Man(a1-3)[Neu5Ac(a2-6)Gal(b1-4)GlcNAc(b1-3)Gal(b1-4)GlcNAc(b1-3)Gal(b1-4)GlcNAc(b1-2)Man(a1-6)]GalNAc
# Outline: as §1
# [17] = biological target: Neu5Ac(a2-6)Gal(b1-4)GlcNAc(b1-3)Gal(b1-4)GlcNAc(b1-3)GalNAc
# Outline: as §1
# [18] = biological target: Neu5Ac(a2-6)Gal(b1-4)GlcNAc(b1-3)Gal(b1-4)GlcNAc(b1-3)[Neu5Ac(a2-6)Gal(b1-4)GlcNAc(b1-3)Gal(b1-4)GlcNAc(b1-6)]GalNAc
# Outline: as §1
# [19] = biological target: Neu5Ac(a2-6)Gal(b1-4)GlcNAc(b1-3)Gal(b1-4)GlcNAc(b1-6)[Gal(b1-3)]GalNAc
# Outline: as §1
# [20] = biological target: Neu5Ac(a2-6)Gal(b1-4)GlcNAc(b1-3)Gal(b1-4)[Fuc(a1-3)]GlcNAc(b1-3)Gal(b1-4)[Fuc(a1-3)]GlcNAc
# Outline: as §1
# [21] = biological target: Neu5Ac(a2-6)Gal(b1-4)GlcNAc(b1-3)GalNAc
# Outline: as §1
# [22] = biological target: Neu5Ac(a2-6)Gal(b1-4)GlcNAc(b1-3)[Neu5Ac(a2-6)Gal(b1-4)GlcNAc(b1-6)]GalNAc
# Outline: as §1
# [23] = biological target: Neu5Ac(a2-6)Gal(b1-4)GlcNAc(b1-6)GalNAc
# Outline: as §1
# [24] = biological target: Neu5Ac(a2-6)Gal(b1-4)GlcNAc(b1-6)[Gal(b1-3)GlcNAc(b1-3)]Gal(b1-4)Glc
# Outline: as §1
# [25] = biological target: Neu5Ac(a2-6)Gal(b1-4)GlcNAc(b1-6)[Gal(b1-3)]GalNAc
# Outline: as §1
# [26] = biological target: Neu5Ac(a2-6)Gal(b1-4)GlcNAc6S
# Outline: as §1
# Neu5Ac(a2-6)GalNAc = biological target: Neu5Ac(a2-6)GalNAc
# Outline: as §1
# [27] = biological target: Neu5Ac(a2-6)GalNAc(b1-4)GlcNAc
# Outline: as §1
# [28] = biological target: Neu5Ac(a2-6)GalNAc(b1-4)GlcNAc6S
# Outline: as §1
# [29] = biological target: Neu5Ac(a2-6)GlcNAc(b1-4)GlcNAc
# Outline: as §1
# [30] = biological target: Neu5Ac(a2-6)GlcNAc(b1-4)GlcNAc(b1-4)GlcNAc
# Outline: as §1
binder,measurement,setting,value
HPL (Tachypleus tridentatus) (protein) MEDDCTCVTDRSLEGKLMKHPSTPAVYQILDGCRRLVPNPPTYNNIYKNWECIQSNILEKLLCKCDSLSNGAELIKGSGDTVYLLSNGVKRPIADPETFNGFCFDWNKIKTYSDIVINSLSTGPIIIIKHHHHHH,glycan array binding signal (z-score),[1],0.476
same,glycan array binding signal (z-score),[2],-0.108
same,glycan array binding signal (z-score),[3],-0.095
same,glycan array binding signal (z-score),[4],0.007
same,glycan array binding signal (z-score),[5],-0.191
same,glycan array binding signal (z-score),[6],-0.31
same,glycan array binding signal (z-score),[7],-0.077
same,glycan array binding signal (z-score),[8],0.027
same,glycan array binding signal (z-score),[9],-0.346
same,glycan array binding signal (z-score),[10],-0.34
same,glycan array binding signal (z-score),[11],-0.37
same,glycan array binding signal (z-score),[12],-0.175
same,glycan array binding signal (z-score),[13],-0.252
same,glycan array binding signal (z-score),[14],0.1
same,glycan array binding signal (z-score),[15],-0.069
same,glycan array binding signal (z-score),[16],0.508
same,glycan array binding signal (z-score),[17],-0.144
same,glycan array binding signal (z-score),[18],0.169
same,glycan array binding signal (z-score),[19],-0.132
same,glycan array binding signal (z-score),[20],-0.441
same,glycan array binding signal (z-score),[21],0.38
same,glycan array binding signal (z-score),[22],0.127
same,glycan array binding signal (z-score),[23],0.774
same,glycan array binding signal (z-score),[24],-0.279
same,glycan array binding signal (z-score),[25],0.26
same,glycan array binding signal (z-score),[26],-0.356
same,glycan array binding signal (z-score),Neu5Ac(a2-6)GalNAc,-0.114
same,glycan array binding signal (z-score),[27],-0.27
same,glycan array binding signal (z-score),[28],-0.216
same,glycan array binding signal (z-score),[29],-0.447
same,glycan array binding signal (z-score),[30],-0.012
